Experimental data as given in the supplement of paper PMC12355420.
Counter-ions that a name gives are not always drawn. The list shows a part of the results. Cut-off read from the data, not from the text of the source: active = 0.5 or less and inactive = the rest. Repeats are few or missing, and single values can be far off.

Tests used:
Settings in all cases: 50 µM; 24 h
[1] = system: HeLa VPS33A reporter cells; assay: relative cell viability (CellMask signal) vs DMSO (fraction of DMSO); higher = less cytotoxic;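 note: primary screen of an FDA-approved drug library in HeLa reporter cells in 96-well format, CellMask signal normalized to DMSO-treated wells set as 1, under 0.5 deemed highly cytotoxic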
[2] = system: HeLa VPS33A R498W KI + HA-SDC1-FLAG; assay: relative GAG core protein HA-SDC1 amount per cell number vs DMSO (fraction of DMSO); higher = more SDC1 (GAG core protein);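 note: HA-SDC1 level read out by In-Cell Western staining with an anti-HA antibody against the N-terminal tag, screening FDA-approved library drugs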
[3] = system: HeLa VPS33A KO + NLuc-VPS33A R498W; assay: relative mutant VPS33A R498W amount (NanoLuc luminescence) vs DMSO (fraction of DMSO); HeLa model of a glycosaminoglycan (GAG) storage disease; KI is knock-in and KO knock-out; SDC1 is syndecan 1; higher = higher mutant VPS33A level;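 note: screen of an FDA-approved drug library, NanoLuc luminescence read after lysing the treated cells, taken as a measure of mutant VPS33A protein stability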

CCNC(=O)CC[C@H](N)C(=O)O [L-Theanine]
relative cell viability [1]: 0.928
relative GAG core protein HA-SDC1 amount per cell number [2]: inactive: 0.864
relative mutant VPS33A R498W amount [3]: 1.02

Cl.NCCCC[C@H](N)C(=O)O [L-Lysine hydrochloride]
relative cell viability [1]: 1.07
relative GAG core protein HA-SDC1 amount per cell number [2]: inactive: 0.959
relative mutant VPS33A R498W amount [3]: 1.07

O=C(O)c1cc(-c2ccc(F)cc2F)ccc1O [Diflunisal]
relative cell viability [1]: 1.14
relative GAG core protein HA-SDC1 amount per cell number [2]: inactive: 0.639
relative mutant VPS33A R498W amount [3]: 0.506

C[C@@H](O)[C@H](N)C(=O)O [L-Threonine]
relative cell viability [1]: 1.03
relative GAG core protein HA-SDC1 amount per cell number [2]: inactive: 0.968
relative mutant VPS33A R498W amount [3]: 1.1

CC1(C)O[C@@H]2C[C@H]3[C@@H]4CCC5=CC(=O)C=C[C@]5(C)[C@H]4[C@@H](O)C[C@]3(C)[C@]2(C(=O)CO)O1 [Desonide]
relative cell viability [1]: 1.07
relative GAG core protein HA-SDC1 amount per cell number [2]: inactive: 0.856
relative mutant VPS33A R498W amount [3]: 1.05

CCCCN1CCCCC1C(=O)Nc1c(C)cccc1C (stereo unspecified) [Bupivacaine HCl]
relative cell viability [1]: 1.18
relative GAG core protein HA-SDC1 amount per cell number [2]: inactive: 0.968
relative mutant VPS33A R498W amount [3]: 1.15

CC(C)OC(=O)C(C)(C)Oc1ccc(C(=O)c2ccc(Cl)cc2)cc1 [Fenofibrate]
relative cell viability [1]: 0.951
relative GAG core protein HA-SDC1 amount per cell number [2]: inactive: 0.866
relative mutant VPS33A R498W amount [3]: 0.957

CC(C)(Oc1ccc(CCNC(=O)c2ccc(Cl)cc2)cc1)C(=O)O [Bezafibrate]
relative cell viability [1]: 1.14
relative GAG core protein HA-SDC1 amount per cell number [2]: inactive: 1.19
relative mutant VPS33A R498W amount [3]: 1.15

Cc1cc(Nc2cc(CN3CCOCC3)c3nc(C)c(Cc4ccc(Cl)cc4F)n3n2)n[nH]1
relative cell viability [1]: 1.14
relative GAG core protein HA-SDC1 amount per cell number [2]: inactive: 0.647
relative mutant VPS33A R498W amount [3]: 0.73

Nc1cc(C(Cl)=C(Cl)Cl)c(S(N)(=O)=O)cc1S(N)(=O)=O [Clorsulon]
relative cell viability [1]: 1.07
relative GAG core protein HA-SDC1 amount per cell number [2]: inactive: 0.979
relative mutant VPS33A R498W amount [3]: 1.34

C[C@@H]1C(=O)O[C@H]2C[C@@]34[C@H]5C[C@@H](C(C)(C)C)[C@]36[C@@H](OC(=O)[C@@H]6O)O[C@@]4(C(=O)O5)[C@]21O [Ginkgolide A]
relative cell viability [1]: 1.05
relative GAG core protein HA-SDC1 amount per cell number [2]: inactive: 0.844
relative mutant VPS33A R498W amount [3]: 1.37

COc1cc(Cc2cnc(N)nc2N)cc(OC)c1OC [Trimethoprim]
relative cell viability [1]: 0.983
relative GAG core protein HA-SDC1 amount per cell number [2]: inactive: 0.831
relative mutant VPS33A R498W amount [3]: 1.29

CCc1nc(N)nc(N)c1-c1ccc(Cl)cc1 [Pyrimethamine]
relative cell viability [1]: 0.922
relative GAG core protein HA-SDC1 amount per cell number [2]: inactive: 0.605
relative mutant VPS33A R498W amount [3]: 0.289

COc1nc(C)cnc1NS(=O)(=O)c1cccnc1-c1ccc(-c2nnco2)cc1 [Zibotentan (ZD4054)]
relative cell viability [1]: 0.967
relative GAG core protein HA-SDC1 amount per cell number [2]: inactive: 1.3
relative mutant VPS33A R498W amount [3]: 1.51

C[C@@H]1C[C@H]2[C@@H]3C[C@H](F)C4=CC(=O)C=C[C@]4(C)[C@@]3(F)[C@@H](O)C[C@]2(C)[C@@]1(O)C(=O)CO [Flumethasone]
relative cell viability [1]: 0.901
relative GAG core protein HA-SDC1 amount per cell number [2]: inactive: 1.15
relative mutant VPS33A R498W amount [3]: 1.08

CC(=O)OC/C=C(C)/C=C/C=C(C)/C=C/C1=C(C)CCCC1(C)C [Vitamin A Acetate]
relative cell viability [1]: 0.536
relative GAG core protein HA-SDC1 amount per cell number [2]: active: 0.351
relative mutant VPS33A R498W amount [3]: 1.95

Cc1cccc(O)c1 [m-Cresol]
relative cell viability [1]: 1.01
relative GAG core protein HA-SDC1 amount per cell number [2]: inactive: 1.06
relative mutant VPS33A R498W amount [3]: 1.18

COc1cc2nc(N3CCN(C(=O)C4CCCO4)CC3)nc(N)c2cc1OC (stereo unspecified) [Terazosin HCl]
relative cell viability [1]: 1.13
relative GAG core protein HA-SDC1 amount per cell number [2]: inactive: 0.953
relative mutant VPS33A R498W amount [3]: 1.95

C1COC(NC(C2CC2)C2CC2)=N1 [Rilmenidine Phosphate]
relative cell viability [1]: 1.03
relative GAG core protein HA-SDC1 amount per cell number [2]: inactive: 0.975
relative mutant VPS33A R498W amount [3]: 1.16

C[C@H](NC(=O)Cc1cc(F)cc(F)c1)C(=O)N[C@H](C(=O)OC(C)(C)C)c1ccccc1
relative cell viability [1]: 1.23
relative GAG core protein HA-SDC1 amount per cell number [2]: inactive: 1.18
relative mutant VPS33A R498W amount [3]: 0.914

Nc1nc(N)nc(-c2cc(Cl)ccc2Cl)n1 [Irsogladine]
relative cell viability [1]: 1.03
relative GAG core protein HA-SDC1 amount per cell number [2]: inactive: 0.916
relative mutant VPS33A R498W amount [3]: 1.29

Cc1c(O)cccc1C(=O)N[C@@H](CSc1ccccc1)[C@H](O)CN1C[C@H]2CCCC[C@H]2C[C@H]1C(=O)NC(C)(C)C [Nelfinavir]
relative cell viability [1]: 1.23
relative GAG core protein HA-SDC1 amount per cell number [2]: inactive: 1.55
relative mutant VPS33A R498W amount [3]: 0.763

CC(=O)O[C@]1(C(C)=O)CC[C@H]2[C@@H]3C[C@H](C)C4=CC(=O)CC[C@]4(C)[C@H]3CC[C@@]21C [Medroxyprogesterone acetate]
relative cell viability [1]: 1.23
relative GAG core protein HA-SDC1 amount per cell number [2]: inactive: 1.7
relative mutant VPS33A R498W amount [3]: 1.44

O=C1NC(=O)C(c2ccccc2)(c2ccccc2)N1 [Phenytoin]
relative cell viability [1]: 1.01
relative GAG core protein HA-SDC1 amount per cell number [2]: inactive: 0.928
relative mutant VPS33A R498W amount [3]: 1.54

CC[C@@]1(O)C(=O)OCc2c1cc1n(c2=O)Cc2cc3c(CN(C)C)c(O)ccc3nc2-1 [Topotecan HCl]
relative cell viability [1]: 1.03
relative GAG core protein HA-SDC1 amount per cell number [2]: inactive: 0.512
relative mutant VPS33A R498W amount [3]: 1.33

CC(C)(C(=O)O)c1ccc(C(O)CCCN2CCC(C(O)(c3ccccc3)c3ccccc3)CC2)cc1 (stereo unspecified) [Fexofenadine HCl]
relative cell viability [1]: 1.03
relative GAG core protein HA-SDC1 amount per cell number [2]: inactive: 1.37
relative mutant VPS33A R498W amount [3]: 1.56

CNC(=O)c1cc(Oc2ccc(NC(=O)Nc3ccc(Cl)c(C(F)(F)F)c3)c(F)c2)ccn1 [Regorafenib]
relative cell viability [1]: 0.968
relative GAG core protein HA-SDC1 amount per cell number [2]: active: 0.496
relative mutant VPS33A R498W amount [3]: 0.162
